From PubChem BioAssay (NCI)
“And” between values parts separate entries of the source, which are not always exact repeats. Equal values may be shown once.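 48-hour exposure; five concentrations; linearly interpolated endpoints. At the GI50, growth is halved. At the TGI there is no net growth.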

system: NCI-H322M lung; assay: NCI anticancer screen, dose series, 48 h

Row | SMILES | TGI | GI50
1 | COC1=CC(=O)c2c(cc3c(c2O)-c2c(OC)cc4cc5c(c(O)c4c2OC(=O)CC(C)(O)C3)C(=O)CC(C)(O)C5)C1=O (centres undefined) | 3.84 µM | 
2 | Cc1c2ccccc2c(C2C3C(=O)N(c4cccc5ccccc45)C(=O)C3ON2Cc2ccc(CC(N)=O)cc2)c2ccccc12 (centres undefined) | > 50 µM | 
3 | NC1=NC2=C(CCCC2)C(c2cccs2)S1 (centres undefined) | > 100 µM | 
4 | CC(C)OC(=O)NNc1cccc(Cl)c1 | > 100 µM | 
5 | CCOC(=O)Nc1ccc2c(c1)N(C(=O)CCN(CC)CC)c1ccccc1S2 | > 89.5 µM and 97.3 µM | 31300 nM
6 | COc1ncc(-c2ccc3nccc(C#CCN4CCN(S(C)(=O)=O)CC4)c3c2)cc1NS(=O)(=O)c1ccc(F)cc1F | 2.35 µM | 52.9 nM
7 | O=C1CCN2C(=N1)Sc1ccccc12 | > 100 µM | 
8 | COc1cc2c(cc1OCCCCn1c(-c3cccs3)nc3ccccc31)N=C[C@@H]1CCCN1C2=O | 8.43 µM | 2700 nM
9 | CN(C)c1ccc(/C=c2\sc3nnc(-c4cccnc4)n3c2=O)cc1 | > 100 µM | 
10 | Cc1cc(C(O)(c2ccc(Nc3ccccc3)cc2)c2ccc(Nc3ccc(S(=O)(=O)O)cc3)cc2)ccc1N (centres undefined) | 6.29 µM | 2320 nM
11 | COc1cc(C2C(C(=O)O)=C(COC(C)=O)Oc3cc4c(cc32)OCO4)cc(OC)c1OC(C)=O (centres undefined) | > 100 µM | 
12 | CN1CCN(c2ccc3[nH]c(C4=C(O)C(=O)[C@@H]5C(=C4O)N=C(CO)N5C)nc3n2)CC1 | > 100 µM | 
13 | N#C/C(=C\c1ccc(F)cc1)n1nc2cccc(F)c2n1 | > 100 µM | 4910 nM
14 | COc1ccc(/C=C/C(=O)c2ccc(Nc3nc(Nc4ccc(F)cc4)nc(Nc4ccc(Cl)cc4)n3)cc2)cc1 | > 100 µM | > 100000 nM
15 | CC1=NC=C(O)c2ccccc2O1 | > 100 µM | 
16 | O=C(Nc1ccccc1)c1cccc([N+](=O)[O-])c1 | > 100 µM | 
17 | C=CCC12CCC(=O)[C@@]1(C)CC=C(O)C2=O (some centres undefined) | > 100 µM | 
18 | COc1cc(/C=C/C(=O)c2ccc(F)cc2)ccc1OCCCCCOc1cc2c(cc1OC)C(=O)N1CCCC1C=N2 (centres undefined) | 1.28 µM | 80.8 nM
19 | N#Cc1c(-c2ccccc2)cc(-c2cccs2)c(C#N)c1N | > 100 µM | 
20 | Fc1cccc(C2SCc3nc4cc5ccccc5cc4n32)c1 (centres undefined) | > 100 µM | 
21 | CCCOc1ccc(/C=N/Nc2cc(C)nc3ccc(Cl)cc23)cc1 | 3.06 µM | 1690 nM
22 | CC(C)OCc1cc(CN2CCN(c3cccc(Cl)c3)CC2)c(O)c2ncccc12 | 15 µM | 465 nM
23 | Cc1ccc(NC(=O)/C(=N\NC(N)=S)C(C#N)c2ccccc2C)cc1C (centres undefined) | > 100 µM | 
24 | CC(=O)OCC1OC([Se-])C(OC(C)=O)C(OC(C)=O)C1OC(C)=O.N#CCC[PH+](CCC#N)CCC#N.[Au+] (centres undefined) | 52.7 µM | 9470 nM

Row | SMILES | TGI | GI50
25 | O=C1CCCCC1C(O)(C(F)(F)F)C(F)(F)Cl (centres undefined) | > 10 µM | 
26 | C/C(=N\O)C1CC2C=C(C#N)C1N(Cc1ccccc1)C2 (centres undefined) | > 100 µM | 
27 | CC(=O)N=c1ccc2nc(N)nn(O)c-2c1 | > 100 µM | 
28 | COC(=O)c1ccc(C)cc1C1CN=NC12Cc1cc(C)ccc1C2=O (centres undefined) | > 93.5 µM | 
29 | CCc1ccc(Nc2cc(=O)n(C)c(SCc3ccccc3)n2)cc1 | > 100 µM | 
30 | COC(=O)[C@]1(C)CCC[C@]2(C)[C@@H](CCC(=O)C(C)C)[C@]3(C=O)O[C@@H]3C[C@H]21 | > 100 µM | 
31 | CCOc1cc(/C=C/C(=O)C(C(=O)/C=C/c2ccc(OC(=O)CNc3nnc(C)s3)c(OCC)c2)C(=O)CNc2nnc(C)s2)ccc1OC(=O)CNc1nnc(C)s1 | 14.8 µM | 4080 nM
32 | C=C(COC(C)=O)CC(/C=C(\C)CC/C=C(\C)CO)OC(C)=O (centres undefined) | > 100 µM | 
33 | O=c1[nH]c(F)nc2c1ncn2C1OC(CO)C(O)C1O (centres undefined) | > 100 µM | > 100000 nM
34 | CSC1=C(C#N)C(=O)N(c2ccc(C)cc2)C(=O)C1C#N (centres undefined) | > 100 µM | 
35 | O=C(/C=C/c1ccc(O)c(O)c1)NC(COC(=O)/C=C/c1ccc(O)c(O)c1)C(=O)O (centres undefined) | > 100 µM | 
36 | CC(C)(Oc1ccc2c(=O)cc(-c3ccccc3)oc2c1)C(=O)N1CCN(c2ccccc2)CC1 | > 10 µM | 
37 | Cc1ccc(NC(=O)c2nc(S(C)(=O)=O)oc2-c2ccc(F)cc2)cc1Nc1ccc2ncn(C)c(=O)c2c1 | 17.3 µM | 5550 nM
38 | O=C(NS(=O)(=O)c1ccc(NC[C@H]2COCCO2)c([N+](=O)[O-])c1)c1ccc(N2CCN(CC3=C(c4ccc(Cl)cc4)CC4(CCC4)CC3)CC2)cc1Oc1cnc2[nH]ccc2c1 | 6.06 µM | 2030 nM
39 | CCN1C(=O)N(CC)C2C1NC(=S)N2/N=C/C=C/c1ccccc1OC (centres undefined) | > 100 µM | 58.9 nM
40 | Nc1nc(N)c2ncn(-c3ccccc3)c2n1 | > 100 µM | 
41 | C(=N\NC1=NCCN1)/c1cccc2cc3ccncc3nc12 | 16.7 µM | 
42 | Cn1c2cc([N+](=O)[O-])ccc2c(=O)c2c(O)cc3c(c21)C=CC(C)(C)O3 | > 100 µM | 
43 | CCC(c1ccc(OC)cc1)C1NC(=S)NC1=O (centres undefined) | > 50 µM | 
44 | CN(CSc1ccc(Cl)cc1)c1ccc(CSc2ccc(Cl)cc2)cc1 | 73.1 µM | 7160 nM
45 | c1ccc(-c2cn(-c3ccccc3)c(-c3ccccc3)n2)cc1 | 33.4 µM | 16600 nM
46 | CCc1cccc(CC)c1NC(=O)CC1SC(N)=NC1=O (centres undefined) | > 100 µM | 
47 | CN(C)CC1CCCCCCCCCCCCC(CN(C)C)C1=O (centres undefined) | 28.6 µM | 
48 | N#Cc1ccc(C(C2C(=O)NC(=O)NC2=O)C2C(=O)NC(=O)NC2=O)cc1 | > 100 µM | 

Row | SMILES | TGI | GI50
49 | O=C(CCc1ccc(O)c(O)c1)NCCc1cc(O)c(O)c(O)c1 | > 100 µM | 
50 | COc1cc(/C=C/C(=O)c2c(C)nc3ccccc3c2C)ccc1OCCCCOc1cc2c(cc1OC)C(=O)N1CCC[C@H]1C=N2 | 2.75 µM | 1000 nM
51 | O=C(O)c1ccc(C(=O)O)c(C(=O)O)c1.[NH-]C1CCCCC1[NH-].[Pt+2] | > 96.5 µM | 18000 nM
52 | O=C([O-])CCc1ccccc1.O=C([O-])CCc1ccccc1.O=C([O-])CCc1ccccc1.O=C([O-])CCc1ccccc1.[Mo+2].[Mo+2] | > 100 µM | > 100000 nM
53 | Cc1[nH]c2nc3c(ncn3COCCO)c(=O)n2c1C(c1ccccc1)(c1ccccc1)c1ccccc1 | 28.7 µM | 
54 | O=C1c2cccnc2C(=O)c2c1c(C(=O)OCCc1ccccn1)c1ccccn21 | 1.97 µM | 44 nM
55 | COC(=O)[C@@H](C)C[C@H](Cc1ccccc1)NC(=O)c1csc([C@@H](C[C@H](C(C)C)N(C)C(=O)C2(NC(=O)[C@H]3CCCCN3C)CCC2)OC(C)=O)n1 | > 25 µM | 24.7 nM and 11.8 nM
56 | Cc1c(-c2nc(N)c(C#N)c(N)c2C#N)c(=O)oc2ccccc12 | > 100 µM | 
57 | Nc1nc(Br)nc2ncn(C3CC(O)C(CO)O3)c12 (centres undefined) | > 100 µM | 
58 | NCCCn1c2c(c3ccc([N+](=O)[O-])cc3c1=O)C(=O)c1cc(F)ccc1-2 | 1.24 µM | 122 nM
59 | CO[C@H]1O[C@@H]2OC3(C)CCC4[C@H](C)CCC([C@H]1C)[C@]42OO3 (some centres undefined) | > 100 µM | 
60 | O=C(NCCc1ccccc1)c1cc(/C=C/c2cc(O)ccc2O)ccc1O | 27.1 µM | 
61 | CCCCCCCC(CC(=O)NC(CO)C(=O)NC(CO)CC(C)C)OC(=O)CC(CCCCCCC)OC(=O)CC(CCCCCCC)OC1OC(C)C(O)C(OC2OC(C)C(O)C(O)C2O)C1O (centres undefined) | 25 µM | 
62 | FC(F)(F)c1cc(-c2ncn(/C=C\c3nnco3)n2)cc(C(F)(F)F)c1 | > 100 µM | 83.4 nM
63 | CC(=O)CC(=O)NC=O | > 100 µM | 
64 | Cc1cc(=O)oc2cc(OC(=O)Nc3ccccc3)ccc12 | > 100 µM | 
65 | O=C1Nc2ccccc2/C1=C\c1c(-c2ccccc2)nc2n1CCS2 | 58.9 µM | 
66 | Cc1ccc(C(=O)N2CCCCC2)cc1N=NN(C)C | > 100 µM | 
67 | CC(=O)Oc1ccc(Nn2c3ccccc3c3ccccc32)c(C)c1 | > 100 µM | 
68 | [N-]=[N+]=CC(=O)OCC1NC(=O)C(COC(=O)C=[N+]=[N-])NC1=O (centres undefined) | > 100 µM | 
69 | O=C(Nc1ccc(I)cc1)c1cccc([N+](=O)[O-])c1O | > 100 µM | 3990 nM
70 | O=C(O)CNCCc1ccccc1 | > 100 µM | 
71 | CC(=O)Oc1c(Br)ccc2cc(C(Br)Br)c(C(=O)c3ccccc3)nc12 | 37.2 µM | 
72 | O=c1[nH]c2ccccc2n2cc3ccccc3c12 | 46.2 µM | 23800 nM

Row | SMILES | TGI | GI50
73 | O=C1/C(=C\c2ccccc2)CN(C(=O)c2ccccc2)C/C1=C\c1ccccc1 | 35.9 µM | 16100 nM
74 | CCCNCC(O)CNc1ccc(NCC(O)CNCCC)c2c1C(=O)c1ccccc1C2=O (centres undefined) | 7.39 µM | 
75 | C=C1c2[nH]c3ccccc3c2CC(C(=O)O)N1C(O)c1ccc(S(=O)(=O)O)cc1 (centres undefined) | > 100 µM | 
76 | CCCn1c(=O)c2nn3c(=O)n(CCC)c(=O)c3nn2c1=O | > 100 µM | 
77 | CCCCN(CCCC)CC(C(=O)Nc1ccc([N+](=O)[O-])cc1[N+](=O)[O-])/C(C)=N\NC(=O)C[N+](C)(C)C (centres undefined) | > 100 µM | 
78 | C=CC(OC(=O)C(C)C)c1ccc(OC(=O)C(C)C)cc1 (centres undefined) | 8.91 µM | 
79 | O=C(c1ccccc1)C(Nc1ccc2ccccc2c1)c1ccccc1 (centres undefined) | > 100 µM | 
80 | C#C[C@]1(O)[C@@H](CO)O[C@@H](n2ccc(N)nc2=O)[C@@H]1O | 1.44 µM | 
81 | O=C(Cc1ccccc1)N/N=C(/c1nc2ccc([N+](=O)[O-])cc2[nH]c1=O)C(O)c1ccccc1Cl (centres undefined) | > 100 µM | 
82 | O=C(O)c1cn(C2CC2)c2cc(N3CCN(C(=O)Nc4nc(-c5ccc(Br)cc5)cs4)CC3)c(F)cc2c1=O | > 100 µM | 2920 nM
83 | NS(=O)(=O)c1ccc(N=C2C(=O)Nc3ccccc32)cc1 | > 100 µM | 
84 | COc1ccc2c(c1)-c1nc(=O)n(CCCN(C)C)c3ccc([N+](=O)[O-])c(c13)N2 | 11.9 µM | 
85 | COc1ccc2[nH]c3c4c(cc(-c5ccccc5)c3c2c1)C(=O)N(c1ccccc1)C4=O | > 100 µM | 
86 | Cn1nc(-c2ccccc2)c2c(-c3ccccc3)c3cc(Cl)ccc3nc21 | > 100 µM | 
87 | O=C(O)c1ccc(Oc2nc3ccccc3s2)cc1 | > 100 µM | 
88 | NC(Cc1ccccc1)c1nn[nH]n1 (centres undefined) | > 100 µM | 
89 | O=c1oc2ccc3ccccc3c2cc1-c1cn2c(n1)sc1ccccc12 | > 100 µM | 
90 | CCOC(=O)C1=CNC(C(=O)OCC)C1c1cccn1-c1ccccc1 (centres undefined) | > 100 µM | 
91 | CN(C)CCN(C)C(=O)C1CCCN1C(=O)OCc1ccccc1 (centres undefined) | > 100 µM | 
92 | CCOC(=O)Nc1n[nH]nc1Cl | > 100 µM | 
93 | Cc1cc(C)c(S(=O)(=O)N(CCCN)OCCON(CCCN)S(=O)(=O)c2c(C)cc(C)cc2C)c(C)c1 | 9.07 µM | 
94 | C1=C(c2ccccc2)O[C@H](COCc2ccccc2)C(OCc2ccccc2)[C@@H]1OCc1ccccc1 (some centres undefined) | > 10 µM | 
95 | C/C(=C\CNc1ncnc2c1ncn2CCC(=O)OC(C)(C)C)CO | > 100 µM | 
96 | COc1ccc(-n2c(Cn3nnc(-c4cccnc4)n3)nn(C3OC(COC(=O)c4ccccc4)C(OC(=O)c4ccccc4)C3OC(=O)c3ccccc3)c2=S)cc1 (centres undefined) | > 100 µM | 
